Experimental data reported in article PMC9911399, “Two distinct binding modes provide the RNA-binding protein RbFox with extraordinary sequence specificity”.
Numbering of substitutions follows the chain as printed; changes in the protein carry UniProt numbers. The list shows a part of the results.

T1: RBFOX1 RRM (Homo sapiens, UniProt Q9NWB1 109-208)
T1 sequence: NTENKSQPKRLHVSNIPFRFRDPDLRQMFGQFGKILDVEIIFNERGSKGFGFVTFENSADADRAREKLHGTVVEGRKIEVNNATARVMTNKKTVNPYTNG

B1: UUCGCAG (DNA:RNA)
RNA: GGGAGACCGGAAUUCAGAUUGUCCUUCGCAGUUAAAUCCCGUCGUAGCCACCA
DNA 1: CAATCTGAATTCCGGTCTCCC
DNA 2: TGGTGGCTACGACGGGATT
B2: UAAAACU (DNA:RNA)
RNA: B1 RNA with U26A, C27A, G28A, C29A, A30C, G31U
DNA 1: CAATCTGAATTCCGGTCTCCC
DNA 2: TGGTGGCTACGACGGGATT
B3: CCGAUUG (DNA:RNA)
RNA: B1 RNA with U25C, U26C, C27G, G28A, C29U, A30U
DNA 1: CAATCTGAATTCCGGTCTCCC
DNA 2: TGGTGGCTACGACGGGATT
B4: UGAGUCG (DNA:RNA)
RNA: B1 RNA with U26G, C27A, C29U, A30C
DNA 1: CAATCTGAATTCCGGTCTCCC
DNA 2: TGGTGGCTACGACGGGATT
B5: CCACAGG (DNA:RNA)
RNA: B1 RNA with U25C, U26C, C27A, G28C, C29A, A30G
DNA 1: CAATCTGAATTCCGGTCTCCC
DNA 2: TGGTGGCTACGACGGGATT
B6: CGUCUAG (DNA:RNA)
RNA: B1 RNA with U25C, U26G, C27U, G28C, C29U
DNA 1: CAATCTGAATTCCGGTCTCCC
DNA 2: TGGTGGCTACGACGGGATT
B7: AGCUGAU (DNA:RNA)
RNA: B1 RNA with U25A, U26G, G28U, C29G, G31U
DNA 1: CAATCTGAATTCCGGTCTCCC
DNA 2: TGGTGGCTACGACGGGATT
B8: GGAAGCC (DNA:RNA)
RNA: GGGAGACCGGAAUUCAGAUUGUCCGGAAGCCUUAAAUCCCGUCGUAGCCACCA
DNA 1: CAATCTGAATTCCGGTCTCCC
DNA 2: TGGTGGCTACGACGGGATT
B9: AGACUAG (DNA:RNA)
RNA: B8 RNA with G25A, A28C, G29U, C30A, C31G
DNA 1: CAATCTGAATTCCGGTCTCCC
DNA 2: TGGTGGCTACGACGGGATT
B10: GAUCCAC (DNA:RNA)
RNA: B8 RNA with G26A, A27U, A28C, G29C, C30A
DNA 1: CAATCTGAATTCCGGTCTCCC
DNA 2: TGGTGGCTACGACGGGATT
B11: UACUCCU (DNA:RNA)
RNA: B1 RNA with U26A, G28U, A30C, G31U
DNA 1: CAATCTGAATTCCGGTCTCCC
DNA 2: TGGTGGCTACGACGGGATT
B12: AUAGCAU (DNA:RNA)
RNA: B1 RNA with U25A, C27A, G31U
DNA 1: CAATCTGAATTCCGGTCTCCC
DNA 2: TGGTGGCTACGACGGGATT
B13: GAGGAAU (DNA:RNA)
RNA: B1 RNA with U25G, U26A, C27G, C29A, G31U
DNA 1: CAATCTGAATTCCGGTCTCCC
DNA 2: TGGTGGCTACGACGGGATT
B14: GGCUAUG (DNA:RNA)
RNA: B8 RNA with A27C, A28U, G29A, C30U, C31G
DNA 1: CAATCTGAATTCCGGTCTCCC
DNA 2: TGGTGGCTACGACGGGATT
B15: UACAACA (DNA:RNA)
RNA: B8 RNA with G25U, G26A, A27C, G29A, C31A
DNA 1: CAATCTGAATTCCGGTCTCCC
DNA 2: TGGTGGCTACGACGGGATT
B16: UAUAUGA (DNA:RNA)
RNA: B8 RNA with G25U, G26A, A27U, G29U, C30G, C31A
DNA 1: CAATCTGAATTCCGGTCTCCC
DNA 2: TGGTGGCTACGACGGGATT
B17: AGCGGGG (DNA:RNA)
RNA: B1 RNA with U25A, U26G, C29G, A30G
DNA 1: CAATCTGAATTCCGGTCTCCC
DNA 2: TGGTGGCTACGACGGGATT
B18: GUCCAGA (DNA:RNA)
RNA: B1 RNA with U25G, G28C, C29A, A30G, G31A
DNA 1: CAATCTGAATTCCGGTCTCCC
DNA 2: TGGTGGCTACGACGGGATT
B19: UGGGCUU (DNA:RNA)
RNA: B1 RNA with U26G, C27G, A30U, G31U
DNA 1: CAATCTGAATTCCGGTCTCCC
DNA 2: TGGTGGCTACGACGGGATT
B20: UCUCUUC (DNA:RNA)
RNA: B8 RNA with G25U, G26C, A27U, A28C, G29U, C30U
DNA 1: CAATCTGAATTCCGGTCTCCC
DNA 2: TGGTGGCTACGACGGGATT
B21: CAGCCUG (DNA:RNA)
RNA: B1 RNA with U25C, U26A, C27G, G28C, A30U
DNA 1: CAATCTGAATTCCGGTCTCCC
DNA 2: TGGTGGCTACGACGGGATT
B22: UCGAAAG (DNA:RNA)
RNA: B1 RNA with U26C, C27G, G28A, C29A
DNA 1: CAATCTGAATTCCGGTCTCCC
DNA 2: TGGTGGCTACGACGGGATT
B23: CUCGAGA (DNA:RNA)
RNA: B1 RNA with U25C, C29A, A30G, G31A
DNA 1: CAATCTGAATTCCGGTCTCCC
DNA 2: TGGTGGCTACGACGGGATT
B24: CUCAUCC (DNA:RNA)
RNA: B8 RNA with G25C, G26U, A27C, G29U
DNA 1: CAATCTGAATTCCGGTCTCCC
DNA 2: TGGTGGCTACGACGGGATT
B25: AAGACAA (DNA:RNA)
RNA: B1 RNA with U25A, U26A, C27G, G28A, G31A
DNA 1: CAATCTGAATTCCGGTCTCCC
DNA 2: TGGTGGCTACGACGGGATT
B26: CUACGUG (DNA:RNA)
RNA: B8 RNA with G25C, G26U, A28C, C30U, C31G
DNA 1: CAATCTGAATTCCGGTCTCCC
DNA 2: TGGTGGCTACGACGGGATT
B27: GAUAACU (DNA:RNA)
RNA: B8 RNA with G26A, A27U, G29A, C31U
DNA 1: CAATCTGAATTCCGGTCTCCC
DNA 2: TGGTGGCTACGACGGGATT
B28: GUAUCAA (DNA:RNA)
RNA: B1 RNA with U25G, C27A, G28U, G31A
DNA 1: CAATCTGAATTCCGGTCTCCC
DNA 2: TGGTGGCTACGACGGGATT
B29: CCCUAGG (DNA:RNA)
RNA: B1 RNA with U25C, U26C, G28U, C29A, A30G
DNA 1: CAATCTGAATTCCGGTCTCCC
DNA 2: TGGTGGCTACGACGGGATT
B30: AGCUGAA (DNA:RNA)
RNA: B8 RNA with G25A, A27C, A28U, C30A, C31A
DNA 1: CAATCTGAATTCCGGTCTCCC
DNA 2: TGGTGGCTACGACGGGATT
B31: AUCCGGC (DNA:RNA)
RNA: B8 RNA with G25A, G26U, A27C, A28C, C30G
DNA 1: CAATCTGAATTCCGGTCTCCC
DNA 2: TGGTGGCTACGACGGGATT

What follows are binders tested against T1, RBFOX1 RRM (assay: EMSA; HiTS-Eq, 1 nM pool, 10 min; buffer printed only for the single-RNA assays: 10 mM Tris pH 7.5, 150 mM NaCl, 3.4 mM EDTA, 0.001% NP-40, 30 C). Details: tags: His6 N-terminal (pET28a); label: 5' 32P.
Method in brief: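 Purified RbFox RRM, wild type or mutant, was incubated for 10 min in 50 µL with 1 nM of a 5′-radiolabelled RNA pool carrying 7 randomized nucleotides, whose flanks were annealed to DNA oligonucleotides, over a series of increasing protein concentrations. Unbound RNA was resolved on 8% native PAGE, cut out, reverse-transcribed, barcoded by PCR and sequenced on an Illumina HiSeq 2500. Relative association constants were derived from changes in read counts for each RNA species versus the control reaction and normalised to the cognate motif.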

Binder	binding signal
B1	0.014 KA relative to UGCAUGU
B2	0.0034 KA relative to UGCAUGU
B3	0.0159 KA relative to UGCAUGU
B4	0.0204 KA relative to UGCAUGU
B5	0.00975 KA relative to UGCAUGU
B6	0.0108 KA relative to UGCAUGU
B7	0.0138 KA relative to UGCAUGU
B8	0.0141 KA relative to UGCAUGU
B9	0.00782 KA relative to UGCAUGU
B10	0.00324 KA relative to UGCAUGU
B11	0.000571 KA relative to UGCAUGU
B12	0.00479 KA relative to UGCAUGU
B13	0.0159 KA relative to UGCAUGU
B14	0.0119 KA relative to UGCAUGU
B15	0.000381 KA relative to UGCAUGU
B16	0.0168 KA relative to UGCAUGU

Binder	binding signal
B17	0.0172 KA relative to UGCAUGU
B18	0.015 KA relative to UGCAUGU
B19	0.0356 KA relative to UGCAUGU
B20	0.0078 KA relative to UGCAUGU
B21	0.0185 KA relative to UGCAUGU
B22	0.0155 KA relative to UGCAUGU
B23	0.013 KA relative to UGCAUGU
B24	0.0016 KA relative to UGCAUGU
B25	0.000869 KA relative to UGCAUGU
B26	0.0157 KA relative to UGCAUGU
B27	0.00602 KA relative to UGCAUGU
B28	0.00628 KA relative to UGCAUGU
B29	0.00913 KA relative to UGCAUGU
B30	0.0126 KA relative to UGCAUGU
B31	0.0061 KA relative to UGCAUGU
